From ChEMBL document CHEMBL4888484, “Replenishing the malaria drug discovery pipeline: Screening and hit evaluation of the MMV Hit Generation Library 1 (HGL1) against asexual blood stage Plasmodium falciparum ,using a nano luciferase reporter read-out” (2022) come the findings set out here.

Each structure is given as a SMILES string. The whole screen tested about 150,000 compounds, of which about 540 (0.36%) showed an effect of 50% or more. Some of the results follow.

The test system of the experiment is Plasmodium falciparum. Nature of the experiment: Primary screen in NF54 nanoGlo assay, in single point, at 2uM, 72h; a lower Z score goes with more inhibition. The experiment is classed as functional, Erythrocyte. The note with it: timepoint 72 hour.
One may read the % Inhibition as the relative decrease from the control value, in per cent. As for `COCC1(c2noc(-c3cnn4c(C)c(C)ccc34)n2)CCOCC1`, the “% Inhibition” value came to 2% and the Z score was -0.2.
In the case of `Cc1ccc2cccc(S(=O)(=O)NC3CC(CO)(CO)C3)c2n1`, the “% Inhibition” value turned out to be 13% and the Z score is recorded as -1.61.
For `C[C@H](O)c1ccc(CNCc2cnc(N3CCOCC3)nc2)cc1` the same measures were -10% and 1.17.
For `CC(C)(C)C1CCCC(NC(=O)CC2(O)CCCC2)CC1` (stereo not given) the same measures were -8% and 1.16.
Consider `Cc1n[nH]c(C)c1CCCNc1nnc(C2CC2)o1`, for which the “% Inhibition” value is on record as -7% and the Z score was found to be 1.
For `COCC1(NC(=O)[C@@H](c2ccccc2)n2nnnc2C)CCCC1` the same measures were -2% and 0.23.
For `COc1ccc(-c2cc3n(n2)CCC(=O)N3Cc2ccc(C(=O)NCc3ccccc3C)cc2)cc1` the same measures were 18% and -2.13.
Consider `O=C1[C@H]2CCCN2C(=O)N1C1CCN(CC(F)(F)F)C1` (stereo not given in full), for which the “% Inhibition” value is given as -13% and the Z score is listed as 1.48.
With `Cc1ccncc1NC(=O)NCCCN1CCCC1=O`, the “% Inhibition” value was -2% and the Z score stood at 0.18.
For `CCOC(=O)Cc1csc(NC(=O)C2CCC2)n1`, the “% Inhibition” value is given as -1% and the Z score amounted to 0.06.
`Cc1cc(Cl)c(OCCCCNCCO)c(Cl)c1`: the “% Inhibition” value is -6% and the Z score came to 0.74.
For `Cc1cccc(NC(=O)c2ccsc2)n1`, the “% Inhibition” value is recorded as -8% and the Z score stood at 0.72.
Consider `O=S(=O)(NCC[C@H](O)c1ccsc1)c1cccs1`, for which the “% Inhibition” value is recorded as 3% and the Z score is -0.43.
Taken in the same sequence, the figures for `CCCN1CCCN(C(=O)c2ccc(NC(=O)NC(C)C)cc2)CC1` were -20% and 3.75.
As for `O=C(c1ccno1)N1CCN(Cc2ccc3c(c2)OCO3)CC1`, the “% Inhibition” value is on record as -13% and the Z score was determined as 1.35.
For `O=C(NCC1(c2ccccc2)CC1)[C@@H]1CCCN1C1CCCC1`, the “% Inhibition” value is -2% and the Z score is 0.29.
For `O=C(NCc1cccc(COC2CCOCC2)c1)[C@@H]1COCCN1CC(F)F` the same measures were -2% and 0.38.
For `CNC(=O)CN1CCN(c2ncnc3cc4ccccc4cc23)CC1` the same measures were 10% and -1.96.
For `CCOC(=O)c1c(S(=O)(=O)N2CCC[C@H](C(=O)NC3CCC(C)CC3)C2)c(C)n(CC)c1C` (stereo not given in full) the same measures were -6% and 0.51.
As for `Cc1ccccc1CN1CCCn2nc(C(=O)N[C@@H](C)C(=O)NCCN3CCOCC3)cc2C1=O`, the “% Inhibition” value was -3% and the Z score is reported as 0.36.
Turning to `O=C(CCn1cnc2cc(-c3noc(-c4ccsc4)n3)ccc21)N1CCCCCC1`, the “% Inhibition” value was -18% and the Z score amounted to 2.3.
Taken in the same sequence, the figures for `C=CCN1CC(=O)N(CCCn2ccnc2)C1=O` were -10% and 1.15.
Consider `C[C@@H]1CNCCN1S(=O)(=O)c1cccc(C(=O)NCc2ccon2)c1`, for which the “% Inhibition” value is recorded as -3% and the Z score stood at 0.58.
For `O=C(O)[C@H]1CN(C(=O)CCC2CCCC2)C[C@@H]1C1CC1` the same measures were -6% and 0.74.
Regarding `Cc1ccc(S(=O)(=O)N2CCOCCOCCOCCOCCOCC2)cc1`, the “% Inhibition” value is on record as -17% and the Z score amounted to 1.98.
For `Cc1oncc1C(=O)Nc1ccc2c(c1)CCC(=O)N2` the same measures were -3% and 0.64.
Taken in the same sequence, the figures for `Cc1nonc1CN(Cc1nc(-c2cccnc2)no1)C(C)C` were -4% and 0.51.
As to `CN1C(=O)c2ccccc2O[C@H]2CN(Cc3ccccc3)C[C@H]21`, the “% Inhibition” value is listed as -9% and the Z score is 1.36.
As to `CCC(CC)CN1C[C@]23C=C[C@H](O2)C(C(=O)N2CC(N4CCOCC4)C2)C3C1=O` (stereo not given in full), the “% Inhibition” value is -13% and the Z score is recorded as 1.68.
For `Cc1ccc([N+]2=C3CCCCCN3C[C@]2(O)c2ccc(OC(F)F)cc2)cc1` the same measures were -12% and 1.97.
Taken in the same sequence, the figures for `COCc1noc([C@H]2CN(CCc3ccccc3)CC23CCCC3)n1` were 1% and -0.16.
Taken in the same sequence, the figures for `NC(=O)c1cnc2n1CCN(C(=O)c1scc3c1OCCO3)C2` were -7% and 1.38.
Turning to `Cc1ccc(NC(=O)C2=CCN(Cc3ccc(F)cc3)CC2)cc1`, the “% Inhibition” value amounted to 3% and the Z score was -0.39.
Taken in the same sequence, the figures for `CC(C)n1ccc(CNC(=O)[C@H]2CC2(C)C)n1` were -7% and 1.33.
For `C[C@H](NC(=O)CC1=CCCCC1)c1ccc(S(C)(=O)=O)c(F)c1` the same measures were -4% and 0.68.
On to `Cc1nc([C@H](C)NC(=O)c2ccn(C)c2C)c(C)s1`, for which the “% Inhibition” value is listed as -10% and the Z score worked out at 1.39.
For `CC(C)(C)OC(=O)N1CCNC(=O)CC1(C)C` the same measures were -1% and 0.16.
For `CC(C)(c1ccccc1)c1nnc(NC(=O)[C@@H]2C[C@H]3CC[C@@H]2O3)s1` the same measures were -4% and 0.64.
For `CC(C)N(C(=O)c1cncc(F)c1)c1ccc(Br)cn1` the same measures were -2% and 0.29.
Regarding `O=S(=O)(Cc1ccccc1)N[C@H]1CCc2c(O)cccc21`, the “% Inhibition” value was 5% and the Z score was -0.73.
Taken in the same sequence, the figures for `O=c1nc(N[C@@H](Cc2ccccc2)c2ccccc2)[nH]c2[nH]ncc12` were -4% and 0.55.
For `CNC(=O)C(C)(C)CNc1ccnc(C#N)c1` the same measures were -10% and 1.72.
Taken in the same sequence, the figures for `C[C@H](Oc1ccc(NC(=O)c2cc(C(C)(C)C)n[nH]2)cc1F)C(=O)O` were -9% and 1.41.
Turning to `CCCn1c(C)nnc1CN(CCO)[C@@H](C)C1CCCCC1`, the “% Inhibition” value was -2% and the Z score amounted to 0.27.
For `Cc1n[nH]c(C)c1NC(=O)CNC1CCOC1c1ccc(Cl)cc1` (stereo not given) the same measures were -4% and 0.64.
Taken in the same sequence, the figures for `Cc1nc(C)c(CNC[C@@](C)(CO)c2ccccc2)s1` were -40% and 4.67.
For `Cn1nnnc1[C@H]1CCCN(C(=O)NC2CCCCC2)C1` the same measures were 5% and -0.74.
Regarding `O=C(OCc1nnc(-c2ccccc2C(F)(F)F)o1)C1(O)CCCCC1`, the “% Inhibition” value is recorded as -8% and the Z score came to 0.88.
For `CC(C)CNC(=O)[C@@H]1Cc2[nH]cnc2C2(CCN(Cc3ccsc3)CC2)N1` the same measures were -9% and 1.46.
Taken in the same sequence, the figures for `CC[C@@]1(c2cnn(C)c2)NC(=O)N(Cc2ccnn2C)C1=O` were 2% and -0.28.
Taken in the same sequence, the figures for `Cc1nccn1-c1ncnc2c(F)cccc12` were -11% and 1.45.
Regarding `N#Cc1ccc(Cl)c(Br)c1`, the “% Inhibition” value is reported as -12% and the Z score turned out to be 1.52.
For `CCC(CC)(CCC#N)CN1CCN(C)[C@@H](C)C1` the same measures were -2% and 0.31.
For `CO[C@@]12CC[C@@H](O)C[C@@H]1N(Cc1ccccc1OCCO)CC2` the same measures were 6% and -0.95.
Taken in the same sequence, the figures for `Nc1c(F)cc(Cl)cc1C(=O)NCCC(F)(F)F` were -4% and 0.37.
Regarding `O=C(O[C@@H](c1ccccc1)N1C(=O)C(C(F)(F)F)(C(F)(F)F)c2ccccc21)C(C(F)(F)F)C(F)(F)F`, the “% Inhibition” value turned out to be 31% and the Z score is recorded as -1.14.
For `Cn1cc(C2=CCCN(S(=O)(=O)c3ccc(Cl)cc3)C2)cn1` the same measures were -13% and 1.5.
Taken in the same sequence, the figures for `Cc1noc(C)c1-c1n[nH]c2c1CN(Cc1nc3cccnc3n1C)CC2` were -1% and 0.16.
For `Cc1cc(C)n(CCCN[C@H]2CCCN(CCCc3ccccc3)C2)n1` the same measures were -7% and 0.97.
For the compound `O=C1CNC[C@@H](C(=O)N2CCC(c3ccccc3)(c3ccccc3)CC2)N1`, the “% Inhibition” value came out at 5% and the Z score was -0.93.
Taken in the same sequence, the figures for `O=C(Cn1nc(N2CCCCCC2)c2ccccc2c1=O)Nc1ccccc1F` were -8% and 1.39.
Taken in the same sequence, the figures for `CCOC1CC(CC(=O)N2c3ccncc3N3CCC2C3)C1` (stereo not given) were 4% and -0.55.
Taken in the same sequence, the figures for `COc1ccc(OC)c([C@H](C)Nc2ccc(C(N)=O)nn2)c1` were -15% and 2.
As to `CC1COC(c2ccccc2)CN1C(=O)CCc1ccc(C(=O)O)cc1` (stereo not given), the “% Inhibition” value turned out to be 2% and the Z score is -0.32.
Taken in the same sequence, the figures for `CCCc1oncc1C(=O)N1CCC[C@H](N2CCc3ccccc3C2)C1` were -21% and 3.89.
Taken in the same sequence, the figures for `COC[C@H](NCc1nncn1C)c1ccc(C)o1` were -2% and 0.29.
For `Cc1nc(-c2cnccn2)nc2c1CC(=O)N2C[C@H]1CCCO1` the same measures were -19% and 2.66.
On to `CC(C)C[C@@H]1N[C@H](C(=O)O)Cc2cn(Cc3nccn3C)c3cccc1c23`, for which the “% Inhibition” value is given as -3% and the Z score is recorded as 0.4.
Taken in the same sequence, the figures for `CC(C)(C)CC(=O)Nc1nc2c(s1)C[C@@H]1[C@](C)(CO)[C@H](O)CC[C@@]1(C)[C@@H]2CC(=O)NC1CCCC1` were -4% and 0.8.
With `OC[C@H](CC1OCCO1)Nc1ccnc(Cc2ccccc2)n1`, the “% Inhibition” value was determined as 0% and the Z score is -0.03.
Regarding `CN(CCNc1nc(-c2cccnc2)nc2c1cnn2C)S(C)(=O)=O`, the “% Inhibition” value was 0% and the Z score is reported as 0.06.
For `COc1ccc(NC(=O)CS(=O)(=O)Cc2cccnc2)cc1OC(F)F` the same measures were -18% and 1.64.
For `O[C@@H](CNCc1cccnc1)COc1cccc2ccccc12` the same measures were -2% and 0.21.
Taken in the same sequence, the figures for `CCn1cc(CCN2CCN(c3nccc4sccc34)CC2)cn1` were 5% and -0.64.
For `c1ccc2oc(CN3CCN4CCC[C@H]4C3)cc2c1`, the “% Inhibition” value is listed as -9% and the Z score worked out at 1.35.
As for `CCC(C)(C)C(=O)N1CCN(c2ccc(NC(=O)c3ccco3)cn2)CC1`, the “% Inhibition” value is -17% and the Z score is 2.33.
Taken in the same sequence, the figures for `C[C@H]1CCN(Cc2nc(N)nc(N(C)C)n2)c2ccccc21` were 9% and -1.24.
For `Cc1n[nH]cc1CN[C@H]1CCN(Cc2ccccc2)c2ccccc21` the same measures were 17% and -2.17.
For `CC(C)n1cnnc1CNC(=O)c1nn(C)cc1Cl` the same measures were -10% and 1.88.
Consider `COc1ccc(N2CCN(C(=O)c3cnn(C)c3C3CCN(C(=O)OC(C)(C)C)CC3)CC2)cc1`, for which the “% Inhibition” value was -9% and the Z score came out at 1.42.
For `COc1cc(NS(=O)(=O)CCNS(=O)(=O)c2ccccc2)c(OC)cc1Cl` the same measures were 0% and -0.04.
Taken in the same sequence, the figures for `CCNc1ccnc(NCC(=O)NC(C)(C)C)n1` were -5% and 0.94.
In the case of `O=C(NOCc1ccccc1)[C@H]1CC1(Cl)Cl`, the “% Inhibition” value amounted to 1% and the Z score is -0.18.
Regarding `Cc1nc2c(c(=O)[nH]1)CCN(c1ncccc1C(=O)N1C[C@@H]3CC[C@H]1C3)CC2`, the “% Inhibition” value is reported as -11% and the Z score is reported as 2.11.
Taken in the same sequence, the figures for `COc1ccc(N2CCCC2=O)c(NC(=O)Cn2cnc3ccccc3c2=O)c1` were 12% and -1.49.
